# Results from the supplement of paper PMC3724861.
# The list shows a part of the results.
# Test system: T1, Caupolican (Caup) homeodomain DNA-binding domain
# T1 sequence: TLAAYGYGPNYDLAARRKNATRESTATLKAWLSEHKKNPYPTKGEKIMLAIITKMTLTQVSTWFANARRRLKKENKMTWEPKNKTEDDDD
# Experiment: PBM E-score (8-mer, recovered from the published 9-mer minima) (E-score (dimensionless, -0.5 to 0.5)); Drosophila protein; higher = stronger relative binding preference, active = 0.31 or more
# Outline: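 An enrichment score, with higher meaning stronger, expresses relative binding preference for each short DNA word. The protein used was Caup's homeodomain DNA-binding domain (residues 214-303), produced by in vitro transcription and translation and tested at 100 nM on custom-designed protein binding microarrays. The 8-mer values were recovered from published 9-mer scores, each equal to the lower of its two constituent 8-mer scores.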
row,Sequence,PBM E-score
1,ACTGACAA,inactive: 0.283
2,ACAACTAA,inactive: 0.248
3,ATCCTAAA,inactive: 0.0253
4,GGACATGA,inactive: 0.304
5,CGCTAACC,inactive: -0.15
6,TAGGATAA,inactive: 0.00838
7,ATCGTCAC,inactive: 0.0878
8,GACCTCCC,inactive: -0.237
9,ACATTTTC,inactive: 0.161
10,CCAGAAGG,inactive: -0.0936
11,GTGCTTAA,inactive: 0.0207
12,TCATCGGA,inactive: 0.0107
13,TCGGGGCA,≥ -0.114
14,GCATTAAC,inactive: 0.052
15,ACGCCTCA,≥ -0.0822
16,ATCGGCGC,inactive: -0.0528
17,GGTATAAC,inactive: 0.0976
18,ACACGATG,active: 0.347
19,AGGAAGAC,inactive: -0.0315
20,AGCTCCAC,inactive: -0.0389
21,AAATAAGG,inactive: 0.0257
22,CACCAGAG,inactive: -0.069
23,TAGCGACA,inactive: 0.202
24,AAGACGCA,inactive: -0.0559
25,GCGCCCGA,inactive: -0.211
26,AGTTTTAG,inactive: -0.00033

row,Sequence,PBM E-score
1,GTTACTTA,inactive: 0.173
2,CTCGCAGC,inactive: -0.16
3,GAAGTTGC,inactive: -0.0485
4,ACCGATGG,inactive: -0.0399
5,AGCTATAC,inactive: 0.0668
6,CGACATAA,inactive: 0.303
7,CGTCCCAG,inactive: -0.163
8,ACGTGTTG,active: 0.347
9,CAGTGGCG,inactive: -0.206
10,AGATGCTC,inactive: -0.0113
11,GTAGGCCA,inactive: -0.113
12,AGCTGAAA,inactive: 0.00185
13,AGGTACTC,inactive: 0.085
14,CGCATGCC,inactive: -0.0847
15,CACGATCA,inactive: 0.145
16,ACCTGCGG,inactive: -0.19
17,AATGTCCT,inactive: 0.108
18,ATGGCTCA,inactive: -0.0747
19,AGACCTCA,inactive: -0.0286
20,AACCTGAC,inactive: 0.121
21,AGGACTCA,≥ -0.00857
22,CCAACGCA,inactive: -0.0857
23,TAAGCAGA,inactive: -0.0352
24,GACGACTC,inactive: -0.0849
25,ACCTTAGT,inactive: 0.0366
26,CCCAACGA,inactive: -0.0205

row,Sequence,PBM E-score
1,GAGGGATC,inactive: -0.148
2,AGTCGGCG,inactive: -0.116
3,GAAGTTTA,inactive: 0.0574
4,ACTCGTGC,inactive: -0.0342
5,CATGTGAA,inactive: 0.131
6,CATGGCTC,inactive: 0.0143
7,CCCAGGGC,inactive: -0.312
8,GGTCAAAA,inactive: 0.0172
9,ACCGGACC,inactive: -0.118
10,CCAATGTC,inactive: 0.0611
11,CTTTGGCA,inactive: -0.0546
12,GGGCCAAC,inactive: -0.123
13,AAAAGGAA,inactive: -0.00331
14,AACAGGAT,inactive: 0.196
15,AAAACTAC,inactive: 0.199
16,AGCTGGAC,inactive: -0.0138
17,CTACCTAA,inactive: 0.0488
18,GGAATGTA,inactive: 0.144
19,GACTCTGC,inactive: -0.166
20,CTCCACGC,inactive: -0.203
21,CCCTAGTA,inactive: 0.0295
22,ACCGACCT,≥ -0.0352
23,ACTCGCCT,inactive: -0.0825
24,GACTGAGA,inactive: -0.0628
25,CTACTCCA,inactive: -0.021
26,AGGGTGGC,inactive: -0.17

row,Sequence,PBM E-score
1,CGCTCGAG,inactive: -0.114
2,GCGTCCCC,inactive: -0.191
3,CATGGTGA,inactive: 0.0885
4,ATGGCGTA,inactive: 0.002
5,ACTAACGG,inactive: 0.013
6,GCTACTTA,inactive: 0.0916
7,GATGGCCC,inactive: -0.223
8,GAAGACTA,inactive: 0.00515
9,GATAACAA,active: 0.32
10,CACTCCGA,inactive: -0.138
11,AGCACGCT,inactive: -0.138
12,ACTCTACA,inactive: 0.193
13,TCCATGCA,inactive: -0.0253
14,TCTTAAAA,inactive: 0.0315
15,GTTATGGA,inactive: 0.068
16,CTTAGTAA,inactive: 0.103
17,TCATTAAA,inactive: 0.143
18,CTTACGTC,inactive: -0.129
19,AAAGGTCG,inactive: -0.118
20,ACGAAGGA,≥ -0.0222
21,ACTGTAGG,inactive: 0.0554
22,TAGCAACA,≥ 0.244
23,CCGCTAGC,inactive: -0.237
24,ACCTTACC,inactive: -0.0231
25,AGCTGTAT,inactive: 0.111
26,GGACGCGA,inactive: -0.081

row,Sequence,PBM E-score
1,AATAGGCA,≥ 0.0818
2,GAGGCTAC,inactive: -0.0893
3,ATGAACAA,inactive: 0.286
4,AACAGCGA,inactive: 0.0365
5,GAATAGCC,inactive: -0.146
6,GAAGGACC,inactive: -0.25
7,ACGGCGTG,inactive: -0.0192
8,AGTGGTTG,inactive: 0.201
9,CGAGTTTC,≥ 0.0614
10,ATTTGCCG,inactive: -0.0175
11,AACATACG,inactive: 0.28
12,CTCTCCTA,inactive: -0.0172
13,AGTGCTTG,inactive: 0.116
14,CGAATGTC,inactive: 0.147
15,CCTCTGCC,inactive: -0.243
16,ACCAATAG,inactive: 0.0279
17,AAGCACCA,inactive: -0.0758
18,AATGCCCG,inactive: -0.115
19,ACTGGAAA,inactive: -0.0184
20,GACAAGCA,active: 0.321
21,AAGCTCGT,inactive: 0.016
22,GAGCGAGA,inactive: -0.0287
23,ATTCTTTC,inactive: 0.0521
24,CACTGGAA,inactive: -0.0017
25,ACATTAGG,inactive: 0.0796
26,GGCCTGAC,inactive: -0.169

row,Sequence,PBM E-score
1,CGAGGGTC,inactive: -0.238
2,GAGGCGAA,inactive: -0.13
3,CTTGACAA,inactive: 0.231
4,GAACATTC,inactive: 0.167
5,GCTGTACA,inactive: 0.268
6,AATTTGCG,inactive: 0.047
7,ATGTGGGA,inactive: 0.0202
8,CCATGGAC,inactive: -0.0492
9,CCGTAAAC,inactive: 0.0245
10,GCCAGCCC,inactive: -0.241
11,TCACCTGA,inactive: -0.0249
12,ATCGATCA,≥ 0.159
13,ACAGAAGT,inactive: 0.0508
14,GATCATCA,inactive: 0.0732
15,AGGCGACC,inactive: -0.0984
16,ACGAAGGC,inactive: -0.203
17,ACCGAAGC,inactive: -0.129
18,ATCGCGCG,inactive: -0.105
19,CGCCGATA,inactive: -0.0683
20,ACGCCTCT,inactive: -0.0874
21,CCGCAGGA,inactive: -0.258
22,CGAGCCTC,inactive: -0.249
23,ACGATGGC,inactive: 0.00603
24,AACAGAAA,≥ 0.203
25,CGTCTTGA,inactive: -0.0138
26,CGCGTTCA,inactive: 0.03

row,Sequence,PBM E-score
1,ATACATGC,active: 0.374
2,CATGCCGG,inactive: 0.00418
3,CTATGACA,inactive: 0.223
4,GCAGGAAC,inactive: -0.0943
5,GTACACAA,active: 0.338
6,GTACAACA,active: 0.429
7,CTCGTTGC,inactive: 0.0292
8,ATGGTTTA,inactive: 0.111
9,CCATTATA,inactive: -0.00987
10,CGAAAGAA,≥ 0.0521
11,AGTGCGAC,inactive: -0.0749
12,AGCGAGGG,inactive: -0.182
13,ACCCGAGG,inactive: -0.193
14,TGTGTTAA,active: 0.32
15,TACTGGGA,≥ 0.0611
16,CTCTTGTC,inactive: 0.217
17,AGATTTAG,inactive: 0.063
18,TACATTAA,inactive: 0.28
19,GCGGGCCA,inactive: -0.261
20,GTGTAATA,active: 0.315
21,ATGGCCAA,inactive: 0.0326
22,ATTCATGA,≥ 0.162
23,CCACCGAA,inactive: -0.0285
24,ACGCCATC,inactive: -0.128
25,CAAGGGCA,inactive: -0.127
26,ATGAGACC,inactive: -0.00544

row,Sequence,PBM E-score
1,AATTATCC,inactive: 0.12
2,ACATGGTA,active: 0.418
3,GAGCGACC,inactive: -0.158
4,CAAACCCA,inactive: 0.0324
5,CTAAGAAG,inactive: 0.0417
6,CGGACAAG,inactive: 0.258
7,CACTCCCG,inactive: -0.132
8,GAAATGTC,inactive: 0.114
9,AAGATTGA,inactive: 0.114
10,AACACGCC,inactive: 0.11
11,GGATAAGA,inactive: 0.0446
12,AGTAAATC,inactive: 0.0588
13,CGTATCCA,inactive: -0.0243
14,GAATAGTA,inactive: 0.11
15,CGGGATTA,inactive: 0.0205
16,ATAAATGG,inactive: 0.0743
17,ATGACGAG,inactive: -0.00718
18,ACTGAGAA,inactive: -0.0461
19,GCAACCCC,inactive: -0.229
20,ACGGACTC,inactive: -0.103
21,GCTCTTTA,inactive: -0.0507
22,ACATTTAT,inactive: 0.251
23,AAACGGTA,inactive: -0.00331
24,ACCCACGT,≥ -0.0225
25,CTCTCTGC,inactive: -0.113
26,ATCGTCAA,inactive: 0.0884

row,Sequence,PBM E-score
1,CACCTTAG,inactive: -0.0619
2,AGCATTAG,inactive: 0.0826
3,ATCGTTGA,inactive: 0.0288
4,CACTTCCG,inactive: -0.121
5,CGCGGGAC,inactive: -0.163
6,CATGGCAC,inactive: -0.00797
7,CGTATCGA,inactive: 0.099
8,CGTGGGCA,inactive: -0.221
9,CGTGAGAA,inactive: -0.0591
10,CCACTCGA,inactive: -0.0253
11,AACATTGA,inactive: 0.243
12,ACGCAAGT,inactive: -0.0112
13,AGTTAGTC,inactive: 0.0092
14,GTGCGACA,inactive: 0.112
15,AGGAATGA,inactive: 0.033
16,CTTTCCAC,inactive: -0.0147
17,ACGTATAC,inactive: 0.11
18,AATTGCGC,inactive: -0.00045
19,CATGGTAA,inactive: 0.271
